Test results: PubChem BioAssay AID493208 (National Center for Advancing Translational Sciences (NCATS), 2011)
Out of some 44,000 compounds screened, about 340 (0.77%) were called active. Not shown: some 5% with an inconclusive outcome. Calls follow the shape of the dose curve; as a rule, active = well fitted inhibition curve with a large enough effect; inconclusive = small, poorly fitted or top-dose-only effect; inactive = flat fitted curve, though single readings scatter. This is one part of the list.

Test: Acumen qHTS Assay for Inhibitors of the mTORC1 Signaling Pathway in MEF (Tsc2-/-, p53-/-) Cells: Sytravon;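 also: plate controls were DMSO for no effect and rapamycin for full effect; nearly all actives have a fitted effect of over 50% in size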
Conditions: phospho-rpS6 immunofluorescence/PI, 24 h; series mostly up to 38.3 µM; activity change, negative = inhibition: at the top concentration
How it was run: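 Compounds act on Tsc2-/-, p53-/- fibroblasts carrying an empty vector for 24 h before fixation and dual staining for phospho-S6 and DNA (propidium iodide). Values are percentages of cells above a rapamycin-defined pS6/PI threshold.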

Activity change, negative = inhibition, inactive:
CCCCNC(=O)c1cnn2c(C)c(Cc3c(C)cc(C)cc3C)c(C)nc12 1.06%
CSc1ccc(CNC(=O)c2ccc3c(c2)N(C)C(=O)C2CCCCN32)cc1 (stereo unspecified) -6.43%
CC(C)COc1ccc(C(=O)Nc2scc(-c3ccc(Br)cc3)c2C(=O)OC(C)C)cc1 -9.2%
CCOC(=O)c1cc2c(=O)n3ccccc3nc2n(Cc2ccco2)c1=NC(=O)c1ccc(OC)cc1 -0.0758%
COc1ccc(C(=O)COC(=O)CCCC(=O)Nc2ccc(C(C)=O)cc2)cc1 -10.5%
CCOc1ccc(-n2nc(CO)c(C(=O)NCC(c3ccccc3)c3ccccc3)n2)cc1 4.28%
Cc1nc2cccnc2n1C1CCN(C(=O)Nc2ccccc2C(F)(F)F)CC1 0%
CNS(=O)(=O)c1cn(CC(=O)N2CCN(c3ccc(Cl)cc3)CC2)cc1S(=O)(=O)NC -3.56%
O=c1ccc2cc(S(=O)(=O)NCc3ccc(Cl)cc3)ccc2[nH]1 6.87%
O=C(NCc1ccccc1)c1cccc(N2CCCS2(=O)=O)c1 6.52%
COc1ccc(-c2cn3nc(SCC(=O)Nc4ccccc4F)ccc3n2)cc1 6.19%
Cc1cc(C)c(NC(=O)COCc2cc(-c3cccs3)on2)c(C)c1 0.588%
COC(=O)c1scc(-c2ccc(C)cc2)c1S(=O)(=O)Nc1ccc(NC(C)=O)cc1 -18.2%
Cc1cccc(OCC(=O)Nc2cccc(C(=O)OCc3cc(=O)n4c(C)csc4n3)c2)c1 0%
COc1ccc(S(=O)(=O)N(CC(=O)NCCSc2ccccc2)c2ccc(Cl)cc2)cc1 -27.7%
O=C(CSc1nccn1Cc1ccc(F)cc1)NCc1ccccc1 -9.53%
CCc1cccc(N2C(=O)CSC23C(=O)N(Cc2ccccc2F)c2ccccc23)c1 (stereo unspecified) -2%
COc1ccc(-n2ncc(C(=O)NCc3ccc4c(c3)OCO4)c2C2CCN(C(=O)OC(C)(C)C)CC2)cc1 -3.83%
CCCSc1ncc(Cl)c(C(=O)Nc2sc3c(c2C(N)=O)CCCC3)n1 -11%
Cc1ccccc1CNC(=O)Cc1csc2ccccc12 -9.34%
CCN(CC)C(=O)c1sc2c(c1C)c(=O)n(Cc1ccccc1)c(=O)n2CC(=O)Nc1ccc(OC)cc1 -2.2%
COc1ccccc1NC(=O)CCNS(=O)(=O)c1ccc2c(c1)CCN2C(=O)C1CC1 -17.8%
COC(=O)c1ccc(-n2nnc(-c3nsc(NC(=O)c4ccc(Cl)cc4)n3)c2C)cc1 0.163%
O=c1c(NCCc2ccc(Cl)cc2)nccn1-c1ccccc1 5.76%
COc1ccc(OC)c(CCNC(=O)c2cc3cccc4c3n2CCS4)c1 -11.7%
Cc1ccc(C)c(N2CCN(S(=O)(=O)c3ccc(F)c(C(=O)Nc4ccc(Cl)cc4Cl)c3)CC2)c1 10.5%
Cc1cc2n(n1)CCCN2C(=O)Nc1ccc(C)c(Cl)c1 -4.81%
CN(c1ccccc1)S(=O)(=O)c1nnc(NC(=O)c2cccs2)s1 1.01%
CCN(Cc1ccccc1)C(=O)CCS(=O)(=O)c1cc(Br)cc2c1N(C(=O)C1CC1)CC2 -3.21%
CCOC(=O)c1c(C)oc2ccc(N(C(=O)c3ccncc3)S(=O)(=O)c3ccc(F)cc3)cc12 5.68%
CCOc1ccccc1NC(=O)Cn1c(=O)n(CCCCC(=O)NCCCOC)c(=O)c2ccccc21 2.95%
Cc1ccc2[nH]c3c(=O)n(CC(=O)NCCCN4CCN(c5ccc(F)cc5)CC4)ncc3c2c1 4.42%
CCc1ccccc1N(C)C(=O)c1cc2c(Cl)nc3ccc(C)cc3c2s1 -1.52%
O=C(NCc1cccc(F)c1)C1CCN(c2nn3cc(-c4ccc(F)cc4)nc3s2)CC1 5.06%
CCc1ccc(NC(=O)Cn2nnc(C(=O)NCCc3ccccc3)c2N)cc1 4.17%
Cc1ccccc1CNCCSc1nnnn1C -0.262%
CC1CCN(S(=O)(=O)c2ccc3c(c2)oc(=O)n3CC(=O)N2CCCCC2)CC1 -3.35%
O=C(Nc1ccc(O)c(-c2nc3ccccc3o2)c1)c1ccc(-c2cccc(Cl)c2)o1 3.04%
Cc1cccc(C)c1NC(=O)c1nc(SC(C)C)ncc1Cl 0.587%
Cc1cc(C)cc(N(CC(=O)Nc2ccc(C)cc2Cl)S(=O)(=O)c2c(C)[nH]c(=O)[nH]c2=O)c1 -20%
COCCCNC(=O)C1CCN(C(=O)c2ccc(-n3ccc4ccccc43)s2)CC1 -5.9%
Cc1ccccc1Nc1c(-c2ccc(O)cc2)nc2c(C)cccn12 -7.41%
COc1cccc(CNC(=O)CSc2nnc(C)c3c(C)n(-c4ccccc4)nc23)c1 -14%
COc1ccc(NC(=O)CCS(=O)(=O)c2cc3c4c(c2)CCN4C(=O)CC3)cc1OC -4.26%
CCC(C(=O)Nc1ccc(F)cc1F)n1nc(-c2ccccc2)c2c(c1=O)CCCC2 (stereo unspecified) 1.33%
COc1ccc(NC(=O)c2ccco2)cc1NC(=O)COc1cc(C)ccc1C(C)C -18%
CC(=O)N1c2ccccc2CC1C(=O)N1CCN(c2cc(Cl)ccc2C)CC1 (stereo unspecified) 18.6%
Cc1nc(N)c(S(=O)(=O)c2ccccc2)c(Nc2ccc(Br)cc2)n1 -0.939%
COc1ccc(Cl)cc1S(=O)(=O)N1CCC(c2ccncc2)CC1 -0.976%
O=C(c1cccn1-c1nnc(N2CCCC2)s1)N1CCN(c2ccc(F)cc2)CC1 0%
Cc1cccc(OCC(=O)NCc2ccc3c(c2)CCN3C(=O)c2ccc(Cl)cc2)c1 -8.2%
CCOc1ccc(NC(=O)c2c(NC(=O)c3ccncc3)sc3c2CCC(C(C)(C)C)C3)cc1 (stereo unspecified) -8.28%
O=C(c1ccc(F)cc1)N1CCN(CCc2ccncc2)CC1 -3.59%
COc1ccc(-c2nnc(SCC(=O)Nc3ccc(C)c(Cl)c3)nc2-c2ccc(OC)c(OC)c2)cc1OC -5.4%
CC(=O)Nc1ccc(NC(=O)CN2C(=O)CCc3cc(S(=O)(=O)N4CCCCC4)ccc32)cc1 0%
Cc1cccc(CNC(=O)CN2CC(C)Sc3ccccc32)c1 (stereo unspecified) 2.71%
COc1cccc(NC2=CC(c3ccc(C(C)C)cc3)N(c3cccc(OC)c3)C2=O)c1 (stereo unspecified) -3.96%
Cc1c(Cl)cccc1-n1nnc(-c2nc(-c3ccc4c(c3)OCO4)no2)c1C -11.8%
COc1ccc(C)cc1NS(=O)(=O)c1cc(Br)cc2c1N(C(C)=O)C(C)C2 (stereo unspecified) 4.2%
Cc1c(C(=O)N(Cc2cccc(Cl)c2)Cc2ccco2)oc2ccccc12 3.65%
CCOC(=O)c1cc(-c2ccccc2)n(-c2cccc(C(=O)NC(C)(C)C)c2)c1C -12.6%
